# Out of some 370,000 compounds screened, about 150 (0.041%) were called active. This list was built around the results that the source calls inconclusive (neither active nor inactive); the mix of calls is not that of the screen. The call rests on the fitted dose curve; in most records, active means well fitted inhibition curve with a large enough effect; inconclusive means small, poorly fitted or top-dose-only effect; inactive means flat fitted curve, though single readings scatter. No potency is given beside an inconclusive call; the fits are too rough.
# Target: Beta-lactamase (Escherichia coli (strain K12)) (UniProt P00811)
# UniProt P00811, sequence (P00811 whole entry, looked up): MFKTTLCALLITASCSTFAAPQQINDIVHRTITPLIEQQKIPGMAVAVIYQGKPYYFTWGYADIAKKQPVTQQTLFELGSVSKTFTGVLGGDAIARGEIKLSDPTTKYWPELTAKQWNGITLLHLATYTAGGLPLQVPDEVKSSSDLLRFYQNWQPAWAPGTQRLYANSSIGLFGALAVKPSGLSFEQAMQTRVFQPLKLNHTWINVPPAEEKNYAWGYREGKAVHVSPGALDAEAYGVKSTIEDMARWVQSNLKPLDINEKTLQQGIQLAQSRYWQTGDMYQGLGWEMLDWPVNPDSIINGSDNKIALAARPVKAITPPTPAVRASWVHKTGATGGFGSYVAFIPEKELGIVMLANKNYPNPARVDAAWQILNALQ
# Assay: qHTS Inhibitors of AmpC Beta-Lactamase (assay with detergent); further: nearly all actives have a fitted effect of over 25% in size;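 on activity change, negative = inhibition: 0% = no-compound wells and -100% = no-enzyme wells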
# Details: AmpC hydrolysis of nitrocefin, absorbance 480 nm, 0.01% Triton; activity change, negative = inhibition: at 114 µM (top of the series)
# Procedure, shortened: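 AmpC (5.3 nM in the dispensed reagent) in 20 mM phosphate pH 7.0 with 0.01% (detergent screen) or 0.0001% Triton X-100 was preincubated with compounds for 15 min at room temperature. Nitrocefin was then added from an 800 uM solution, and hydrolysis was followed at 480 nm.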
# Potency means the concentration at half of the fitted maximal effect; tags describe the fitted curve by direction and shape.
SMILES,Potency,"activity change, negative = inhibition"
CC(=O)Nc1nonc1-c1nc2ccccc2n1Cc1ccccn1,"inconclusive [inhibitor, partial curve, poor fit]",–
CCOc1ccc(NC(=O)c2oc3ccccc3c2NC(=O)Cc2cccc(C)c2)cc1,–,inactive: 11.9%
Cc1ncc(CN2CCCC(C(=O)c3cccc(Cl)c3)C2)s1 (centres undefined),"inconclusive [inhibitor, full curve, poor fit]",–
COc1ccc(-n2nc(C(=O)NCC(=O)Nc3ccccn3)c3ccccc3c2=O)cc1Cl,–,inactive: -7.03%
COc1ccccc1CN1CC(C(=O)NC2(c3ccccc3)CC2)CCC1=O (centres undefined),"inconclusive [inhibitor, full curve]",–
Cc1c(NC(=O)CN2CCN(C(=O)c3ccco3)CC2)c(=O)n(-c2ccccc2)n1C,"inconclusive [inhibitor, full curve, poor fit]",–
CC(C)(C)NC(=O)C1CCN(C(=O)c2ccc(-c3ccccc3)cc2)CC1,"inconclusive [inhibitor, full curve]",–
C=CCOC(=O)CCP(=O)(CCC(=O)OCC=C)c1ccccc1,"inconclusive [inhibitor, full curve]",–
O=C(Nc1nnc(-c2ccccc2)o1)c1cc(-c2cccs2)nc2ccccc12,"inconclusive [inhibitor, full curve, poor fit]",–
O=C(Nc1ccc(-c2cn3ccsc3n2)cc1)C1CC1,"inconclusive [inhibitor, single point]",–
CC(C)CNC1=CC(=O)CC(c2ccco2)C1 (centres undefined),"inconclusive [inhibitor, partial curve, poor fit]",–
CN1CCN(c2ccc(C(N)=O)cc2[N+](=O)[O-])CC1,"inconclusive [inhibitor, partial curve, poor fit]",–
Cc1ccc(-n2c(C)c(C)c3c(NCCO)ncnc32)cc1,–,inactive: -0.751%
O=C(CSc1nc(=O)[nH]c2c1CCC2)NCc1ccc(F)cc1,–,inactive: 2.58%
COC(=O)CCC(=O)NS(=O)(=O)c1ccc(N=NN2CCOCC2)cc1,–,inactive: 0.802%
Cc1ccccc1S(=O)(=O)Cc1ccc(C(=O)N2CCN(c3ccccc3F)CC2)o1,"inconclusive [inhibitor, single point]",–
CC(C)(NC(=O)c1ccccc1)c1nc2ccccc2s1,"inconclusive [inhibitor, single point]",–
CC(=O)C1=C(C)Nc2ncnn2C1c1ccccc1F (centres undefined),"inconclusive [inhibitor, single point]",–
CCOc1ccc(OCCC(=O)OCC(=O)Nc2ccc(Cl)cn2)cc1,"inconclusive [inhibitor, full curve, poor fit]",–
CCc1ccc(CNCCNCC(C)O)cc1 (centres undefined),"inconclusive [inhibitor, partial curve]",–
Cc1cc(C)n(-c2ccc(C(=O)N3CCc4ccccc43)cc2)n1,"inconclusive [inhibitor, partial curve]",–
CCc1c(C)nc2ncnn2c1N1CCC(C(=O)N2CCN(c3ccccc3)CC2)CC1,"inconclusive [inhibitor, full curve, poor fit]",–

SMILES,Potency,"activity change, negative = inhibition"
COc1ccc(C(=O)NCC(=O)OCc2nc(N)nc(Nc3ccccc3C)n2)cc1,"inconclusive [inhibitor, partial curve, poor fit]",–
CC1CCN(c2c(NCC3CCC(C(=O)NCc4ccccc4)CC3)c(=O)c2=O)CC1 (centres undefined),"inconclusive [inhibitor, full curve, poor fit]",–
COC(=O)c1nc2ccc(N3CCOCC3)cc2c(C)c1C(=O)OC,"inconclusive [inhibitor, single point]",–
CC1CN(CCC(=O)Nc2ccc3c(c2)CCC3)CC(C)O1 (centres undefined),"inconclusive [inhibitor, partial curve, poor fit]",–
O=C(CNC(=O)c1ccccc1F)OCCOc1cccc(Cl)c1,"inconclusive [inhibitor, partial curve, poor fit]",–
CC1(C(=O)Nc2ccc3ccccc3c2)CC1(Br)Br (centres undefined),–,inactive: -3.92%
COc1c(C)cc(Br)cc1C(=O)NCc1cccnc1,–,inactive: 0.299%
CCCn1ccc2c(OCC(=O)Nc3ccc(OC)c(OC)c3)cccc2c1=O,–,inactive: 0.515%
O=C(NCCc1ccc(F)cc1)C(=O)NCC(c1cccs1)S(=O)(=O)c1ccccc1 (centres undefined),–,inactive: 9.1%
CCOC(=O)N1CCN(C(=O)c2cc(COc3ccc(F)cc3F)on2)CC1,–,inactive: -1.19%
Fc1ccc(OCc2cc(-c3ccccc3)no2)cc1,"inconclusive [inhibitor, single point]",–
COc1ccc(/C=N/n2c(C)cc(C)c(C(N)=O)c2=O)cc1,"inconclusive [inhibitor, full curve, poor fit]",–
O=[N+]([O-])c1cncc([N+](=O)[O-])c1Nc1ccccc1Cl,"inconclusive [inhibitor, full curve, poor fit]",–
Cc1ccc(N2CCN(c3cc(C)nc4nc(C)nn34)CC2)c(C)c1,"inconclusive [inhibitor, full curve]",–
COc1ccc(NC(=O)COc2ccccc2Cl)cc1S(=O)(=O)N1CCCCC1,–,inactive: 3.15%
O=c1c([N+](=O)[O-])cc(C(F)(F)F)cn1Cc1cccc(Cl)c1,"inconclusive [inhibitor, partial curve, poor fit]",–
COc1ccccc1C(=O)NCC(=O)n1nc(C)cc1C,"inconclusive [inhibitor, partial curve]",–
Cc1ccc(CNCCc2ccccc2F)cc1,"inconclusive [inhibitor, full curve, poor fit]",–
COC(=O)CSc1nc2cc3c(cc2cc1C)OCCO3,–,inactive: 2.08%
Cc1oc(-c2ccccc2Cl)nc1CSc1nncn2c1cc1occc12,"inconclusive [inhibitor, single point]",–
COc1ccc(C2CC(=O)C(C3NCCc4ccccc43)=C(O)C2n2cncn2)cc1 (centres undefined),"inconclusive [inhibitor, full curve]",–
O=C(Nc1ccccc1)OCCNC(=O)c1cccc(Cl)c1,–,inactive: -1.88%

# — PubChem BioAssay AID485294 (National Center for Advancing Translational Sciences (NCATS), 2010)
